Read counts are not given, so values of variants with three or more changes are uncertain.
B1: CPEB3 Ribozyme (parent)
chain: UAACAGGGGGCCACAGCAGAAGCGUUCACGUCGCAGCCCCUGUCAGAUUCUGGUGAAUCUGCGAAUUCUGCUGUAUAUCUC

Variants of: B1
Assay: self-cleavage, relative activity (ratio to wild type); higher = more cleavage; in vitro, sequencing
How it was run: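 After error-prone PCR and barcoding, CPEB3 ribozyme mutant libraries were transcribed with T7 RNA polymerase at 37°C for 5 hours, then given 15 min with DNase I before an EDTA stop, and they cleaved during both steps. Reverse transcription with template switching preceded Illumina sequencing. Relative activity divides a variant's cleaved/total read fraction by the unmutated ribozyme's. At least 5 reads were required per variant, and three batches were averaged.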

Row | Variant | self-cleavage
1 | C12A A13G A15U U26A U69C U72A U78C | 0.13
2 | C11U A57G U60C A75U | 0.06
3 | C11G A45G U51C | 0.36
4 | C11G A57G A64G U66C | 0.13
5 | C11G U67A U78C | 0.1
6 | C11G U41C U54C U74A | 0.98
7 | C11U A35G U60G | 0.8
8 | C11U U25A A28C A57G U58A U66C U67C | 0.11
9 | C11U A18C U26C A56G U66G U80C | 0.03
10 | C11U U25A U58C | 0.07
11 | C11U U26A U31C G52U | 0.17
12 | C12A A28G G33A U43A A75G U78C | 0.04
13 | C11U C37A U54A U60A A64G U69A A75G | 0.05
14 | C11G A28G U31A U41C | 0.07
15 | C11U U43C U48C | 0.07
16 | C11G U26C U54C A56U C71U | 0.05
17 | C12A A21G U26C G46A | 0.28
18 | C11G G16C A35U A64G | 0.05
19 | C11G C62U A75C U78G | 0.04
20 | C11G A20G U41C A56G U60A | 0.18
21 | C11G U48C A56U C62U U67C U78C | 0.09
22 | C12A A28U U41A A57G | 0.06
23 | C11U A20G U49C | 0.09
24 | C11U A15G A28G C50U U80C | 0.15

Row | Variant | self-cleavage
25 | C11U A13G U78C | 0.24
26 | C11G C17A A18C A56G U60G | 0.05
27 | C12A A13U A21G G24A U51A U58C | 0.05
28 | C11U A28G A65C | 0.34
29 | C11G U54C A64G U78A | 0.26
30 | C11G U51C A56G U74A | 0.35
31 | C11G A57G U67A U74A A75G | 0.1
32 | C11U A20G A45G | 0.62
33 | C11U A15G U26C C40U U76C | 0.06
34 | C11U C23U U26A A45G | 0.06
35 | C11U C40U A64G A65G | 0.06
36 | C11G U51C U66G U78A | 0.07
37 | C12A A35G U72A U78C | 0.09
38 | C11G A47G U49C | 0.07
39 | C11U U26C U43C A45G | 0.29
40 | C12A A13G U26A U51G U67C U72A A75U | 0.22
41 | C11U C59U A64U | 0.09
42 | C11G U26A A57G U66C U72C | 0.18
43 | C11G A57G U67C U72C U76A | 0.12
44 | C11U A21G A35G U54G | 0.47
45 | C11U A13G A21U U58C U80C | 0.24
46 | C11U C50A U54C U58A U66C U67C U76G | 0.04
47 | C12A A13G A18C A65G | 0.14
48 | C11G U26A A35G | 0.47

Row | Variant | self-cleavage
49 | C11U A15G A77U | 0.34
50 | C11G A18G C29U A45C A56G U60A | 0.17
51 | C11U A20C U54A A56G | 0.06
52 | C11U G30A C32U C50U A56U A64U U80C | 0.03
53 | C11U A56G U80A | 0.5
54 | C11U A18U A21G C38A U69C | 0.03
55 | C11U A21G G61A | 0.42
56 | C11U A18U A20U A45G U49C | 0.08
57 | C11G A18G A64G U80C | 0.08
58 | C11G U43A U60A U72A U80A | 0.08
59 | C12A A13G U26C A28G G52A | 0.24
60 | C12A A15U U25C U58C A64G U74C | 0.07
61 | C11G C29U U49A | 0.03
62 | C11G A21G U41C A47G G53U A64G | 0.05
63 | C12A A21U U25C U31C U43A U51G U54A | 0.08
64 | C11G G16A A21G U49C U67C U80C | 0.05
65 | C11G A18G C23A U51G U72A | 0.04
66 | C11U A28G A64G | 0.16
67 | C11U A35U U72C U80C | 0.18
68 | C11U U54C A56G U58C U60C A64U U66C | 0.05
69 | C11U A45G U67C A77U | 0.14
70 | C11G A20U U26C U66C U78C | 0.03
71 | C11U A35G A47G U58A A64G | 0.49
72 | C11U A47U U66A | 0.13

Row | Variant | self-cleavage
73 | C11U A20G U26G A35G U72A | 0.14
74 | C11G A18G A20G A35G A47G U78C | 0.09
75 | C11U C12U U31C | 0.27
76 | C11G U43A A45U U80C | 0.06
77 | C11G A18U U26A U49C U60C | 0.03
78 | C11G C17U U51C | 0.35
79 | C11G C17U C29U A45G A56U | 0.06
80 | C11G U26G U43C A56G U72C | 0.14
81 | C11U A20U U26A U43C U51C C59A | 0.04
82 | C11U U25A U26C U69C A77U | 0.04
83 | C11G U60C A64U | 0.09
84 | C11G A28G U31C A57G U78A U80A | 0.06
85 | C11U G24A U49C A64U U72C U76C | 0.06
86 | C11G A18C U78C | 0.09
87 | C11U A13G A18G U51A U76C | 0.06
88 | C12A A13G A18G A45U U48C | 0.17
89 | C11G U54C U74G | 0.46
90 | C11U U31A U66C | 0.07
91 | C11U A13G C62U | 0.03
92 | C11G A20U C29U U80C | 0.29
93 | C11G A15U U60A A64G U76C | 0.07
94 | C11U G30U C37U A45U U48C U66C | 0.05
95 | C11U A20G A45G U78G U80A | 0.12
96 | C11U C12A G19C U26C G30C U54A U69C | 0.1

Row | Variant | self-cleavage
97 | C11U A18G U31C A64G A65G U80C | 0.05
98 | C11U G55A A57G A77G | 0.19
99 | C11G C17U C39G | 0.21
100 | C11U U26C U72C | 0.33
101 | C11U A20U U31C U72A G73A | 0.05
102 | C11U U74A U80A | 0.89
103 | C11U U48C U49C U72A | 0.07
104 | C11G C32G U60C U72A U78C | 0.03
105 | C11U U43G C62A | 0.07
106 | C11G A28U U31A A45G A47G | 0.04
107 | C11G U25C U60C U80C | 0.08
108 | C11G U31A U43C | 0.07
109 | C11U G46C U72C | 0.16
110 | C11U A15G U48C G61C U78C | 0.05
111 | C11U C12U U26C U69C | 0.08
112 | C11U A21G G24A U74A U78C | 0.05
113 | C11G A21U U25C U26A U31C | 0.06
114 | C11U A18G A28U A56G U69C U78A U80C | 0.08
115 | C12A A13U A35G U74G | 1.09
116 | C11G U26G U51C A56G U66C U80A | 0.04
117 | C11U U54A U58C U69A U72C U78C | 0.07
118 | C12A A15G C32A A64U U74A | 0.13
119 | C11U A13G A45U U51A U60A | 0.3
120 | C11U U43C A57G U80C | 0.2

Row | Variant | self-cleavage
121 | C11U G24C U43C U51C A65G U72C | 0.08
122 | C11U A45G U51G U78C | 0.09
123 | C11G A18G A20U U72G U78C C79U | 0.17
124 | C11U G16A A18C U31C U41G | 0.06
125 | C12A A18G G24A | 0.28
126 | C11U G42C U49C A64G U69C G73A | 0.12
127 | C11U A18G G19U U60A | 0.08
128 | C11G U25C G36U U41C A57G A65G | 0.06
129 | C11G U26A U60C A77G U80A | 0.08
130 | C11U G33A U41C U54A | 0.2
131 | C11G U58C C59U U69C A77G | 0.08
132 | C11G U58A U74C | 0.22
133 | C11G U26C A47G U51C | 0.12
134 | C12A A35G A47G U67A U72C | 0.37
135 | C11G A18G U25C A57U U66C A77G | 0.02
136 | C11U U41C A64U U72G U78A | 0.05
137 | C11U U26A G52A U80C | 0.35
138 | C11U A20G A35G G46U | 0.44
139 | C11G U41C U51A U54C U78C U80A | 1.03
140 | C11U A20G U31C U58A U67C U72C | 0.21
141 | C11G C23U U51A U60A | 0.06
142 | C11G U25C G36U U41C | 0.04
143 | C11U C27G U72A A75G | 0.02
144 | C11U U54C U60A | 0.1

Row | Variant | self-cleavage
145 | C11U G30A U80C | 0.38
146 | C11G U26A A28G U31A A45G | 0.05
147 | C11G A45G A47G | 0.1
148 | C11U A18C A45G U67G | 0.16
149 | C11G U26C U51C U58A U69C U80C | 0.07
150 | C11U A20G U69A A75U | 0.26
151 | C11G A18U U54A | 0.5
152 | C11U U31G U60C | 0.13
153 | C11U A20U U49C | 0.19
154 | C11U A20U U60C U69A | 0.05
155 | C11U U25C U43A C50A | 0.26
156 | C11G U25C U26C U41A A64G A65G U69C | 0.29
157 | C12A A28U U60A U72C A75G U80C | 0.53
158 | C12A A21G G22A U54C | 0.21
159 | C11U A21G U25C A35U | 0.21
160 | C11U A18G C38A U43C U51C C68U U72A | 0.04
161 | C11G A21U U26A G30U A45G A56C U60A | 0.04
162 | C11G A20U U66C U69A | 0.03
163 | C11U A18G A75G | 0.09
164 | C11G U25C A65G | 0.08
165 | C11U A15U U26C U51C A57G | 0.17
166 | C11G U25C A28G U48C | 0.05
167 | C11U A35U G42A | 0.12

From the RNAGym collection of RNA variant scans (doi:10.1093/nar/gkz1192)
